Data reported in PubChem BioAssay AID686970 (National Center for Advancing Translational Sciences (NCATS), 2013).
In all, about 360,000 compounds went through this assay and about 6,000 (1.7%) were called active. The inconclusive results got no clear call from the source; some entries with a clear call stand among them for comparison. Calls come from the whole dose curve; as a rule, active = well fitted cell-killing curve with a large enough effect; inconclusive = small, poorly fitted or top-dose-only effect, or effect the other way; inactive = flat fitted curve, though single readings scatter. No potency is given beside an inconclusive call; the fits are too rough.

Assay: qHTS for induction of synthetic lethality in tumor cells producing 2HG: qHTS for the HT-1080-NT fibrosarcoma cell line;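 note: NT is the 2HG producing partner of a matched IDH1 knockdown line; nearly all actives have a fitted effect of over 55% in size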;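 for activity, negative = less viability: 0% = DMSO-treated cells and -100% = media-only wells without cells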
Conditions: HT-1080-NT fibrosarcoma viability, CellTiter-Glo ATP luminescence, 48 h; activity, negative = less viability: at 46.1 µM (top of the series) unless noted
How it was run: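 Luminescent CellTiter-Glo readout after 48 hours of compound exposure at 37 degrees C defined viability of HT-1080-NT cells. Activity was normalized to DMSO wells and cell-free media wells; concentration-response curves were fitted and assigned curve classes.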
Potency is the fitted concentration of half-maximal effect; tags give direction and shape of the fitted curve.

| Compound | Potency | activity, negative = less viability |
| --- | --- | --- |
| Nc1ccc(C(=O)NCc2ccccc2)cc1 | inconclusive [rising, partial curve] | – |
| CCCCc1c(-c2ccccc2OC)ncn1CCc1cccc(Cl)c1 | active: 18.4 µM | – |
| CCCOc1ccc(/C(O)=C2\C(=O)C(=O)N(c3ccccn3)C2c2ccccc2F)cc1C (stereo not drawn) | inconclusive [cytotoxic, single point] | – |
| CCOC(=O)C1=C(CSc2nc(-c3ccccc3)ccc2C#N)OC(N)=C(C#N)C1c1ccc(OC)cc1 (stereo not drawn) | inactive | – |
| O=C(CCl)N(Cc1ccccc1)c1ccccc1 | active: 10.3 µM | – |
| Cc1ccc(C(=O)/C=C\NCc2ccccc2)cc1 | inactive | – |
| Cc1c(Cc2ccc3c(c2)OCO3)sc(NC(=O)c2ccc3ccccc3c2)c1C(N)=O | inactive | – |
| O=C(Nc1ccccc1)Oc1ccc[nH]c1=O | inconclusive [cytotoxic, partial curve] | – |
| COc1ccc(C(CCN(Cc2ccc(OC)c(OC)c2)C(=O)CCl)c2ccccc2)cc1 (stereo not drawn) | inconclusive [cytotoxic, single point] | – |
| COc1ccccc1CNc1nc(NCc2ccc(C)cc2C)c2sccc2n1 | inconclusive [cytotoxic, single point] | – |
| O=C(Nc1cccc(NC(=O)c2ccc([N+](=O)[O-])o2)c1)c1ccco1 | active: 18.4 µM | – |
| COc1ccc(NC(=S)NNC(=O)OC(C)(C)C)cc1OC | inconclusive [cytotoxic, single point] | – |
| O=C(O)c1cc([N+](=O)[O-])cc([N+](=O)[O-])c1N1CCN(c2cccc(C(F)(F)F)c2)CC1 | inactive | – |
| Cc1ccc(N/C(=N/S(=O)(=O)c2cccs2)c2ccccc2)c(C)c1 | inconclusive [cytotoxic, single point] | – |
| CCCC(=O)Nc1ccc(-c2csc(N/N=C\c3ccncc3)n2)cc1 | inconclusive [cytotoxic, single point] | – |
| Cc1nn2c(-c3ccc(S(=O)(=O)N4CCN(CCO)CC4)o3)nnc2c2ccccc12 | inactive | – |
| Cc1ccccc1-c1cc(C(=O)NCC2CC2)nn1CC1CC(c2cccc([N+](=O)[O-])c2)=NO1 (stereo not drawn) | inactive | – |
| COc1cccc(CN(C)CCCn2cnc3c(SC)ncnc32)c1 | inactive | – |
| COc1cc(Cn2c3ccc(NC(=O)CC(C)c4ccccc4)cc3c(=O)n2C)ccc1F (stereo not drawn) | inconclusive [cytotoxic, single point] | – |
| OCc1ccccc1-c1ccc2nncn2c1 | inconclusive [rising, single point] | – |
| CCCCOc1ccc(C(=O)NNC(=S)NC(=O)CC)cc1 | inconclusive [cytotoxic, partial curve] | – |
| FC(F)(F)c1nnc(-c2ccccc2)nc1Sc1ccccc1 | inconclusive [cytotoxic, single point] | – |
| CN(C)CCNC(=O)c1ccc(Sc2ccc(Br)cc2)c([N+](=O)[O-])c1 | active: 23.1 µM | – |
| Cc1cc(C)n(-c2nc(N(C)C)nc(N3CCOCC3)n2)n1 | inconclusive [cytotoxic, single point] | – |

| Compound | Potency | activity, negative = less viability |
| --- | --- | --- |
| Cn1cccc1C(=O)c1ccc(Cl)cc1Cl | inactive | – |
| O=C(N/N=C/c1ccsc1)c1cc(-c2ccncc2)nc2ccccc12 | active: 4.61 µM | – |
| O=C(Nc1ccccc1)Nc1cccc(Cl)c1 | inconclusive [cytotoxic, single point] | – |
| COc1ccccc1CCC(=O)Nc1ccc2c(c1)c(=O)n(C)n2-c1cccs1 | inconclusive [cytotoxic, full curve] | – |
| Cc1ccc(NC(=O)C2CCC(C(C)(C)C)CC2)cc1S(=O)(=O)N1CCOCC1 (stereo not drawn) | inconclusive [cytotoxic, single point] | – |
| CN(NS(=O)(=O)c1ccc(Br)cc1)c1nc(C(F)(F)F)nc2ccccc12 | inconclusive [cytotoxic, partial curve] | – |
| Cc1cc(O)ccc1Nc1cc(-c2cccc(N(C)C)c2)ncn1 | inactive | – |
| CCCCCCSc1nnc(-c2cnn(-c3ccccc3)c2-n2cccc2)n1C | active: 18.4 µM | – |
| O=C([O-])c1cc(-c2ccccc2)cc(-c2ccccc2)[n+]1CCc1ccc(Cl)cc1 | inconclusive [cytotoxic, single point] | – |
| Cc1cccc(NC2=Nc3ccccc3N3C2=Nc2c(c(C)nn2-c2ccccc2)C3c2ccc(O)c(O)c2)c1 (stereo not drawn) | active: 14.6 µM | – |
| COc1ccc(-c2oc(=O)n(C)c2-c2ccc(OC)cc2)cc1 | inactive | – |
| Cc1ccc(N2C(=O)c3n[nH]c(C)c3C2c2cccnc2)cc1 (stereo not drawn) | inactive | – |
| CCOC(=O)CSc1nc2ccsc2c(=O)n1C1CCN(C(=O)OCC)CC1 | – | inactive: -11.5% [at 9.24 µM] |
| Cc1nc2ccccn2c1-c1csc(Nc2cccc(O)c2)n1 | active: 1.64 µM | – |
| COc1ccccc1OCCNC(=O)c1cccs1 | inactive | – |
| CCC(C)Sc1cc(-c2nc3ccccn3c2NC2CCCCC2)ccc1OC (stereo not drawn) | active: 25.9 µM | – |
| COc1ccc(NC(=O)CN(c2cc(C)cc(C)c2)S(=O)(=O)c2c(C)n[nH]c2C)cc1 | inconclusive [cytotoxic, full curve, poor fit] | – |
| COc1cc(/C=N/NC(=O)c2ccccc2)ccc1OS(=O)(=O)c1ccccc1 | inconclusive [cytotoxic, single point] | – |
| CCN(CC)CCNc1ccc(CO)c2sc3ccccc3c(=O)c12 | active: 11.6 µM | – |
| CCOc1ccc(NC(=O)CN(C)C(=O)/C=C/c2ccco2)cc1OCC | inactive | – |
| CC(/C=N/NC(=O)c1cccc(F)c1)=C\c1ccccc1 | inconclusive [cytotoxic, single point] | – |
| Cc1ccc(S(=O)(=O)N(C)CC(O)Cn2c3ccccc3c3ccccc32)cc1 (stereo not drawn) | inconclusive [cytotoxic, single point] | – |
| COc1cc(C2c3cc4c(cc3OC(Nc3ccc(C(=O)O)cc3)C2C)OCO4)cc(OC)c1OC (stereo not drawn) | active: 0.517 µM | – |
| Cc1ccc(S(=O)(=O)/N=C2/NC(=O)/C(=C/c3cccnc3)S2)cc1 | inconclusive [cytotoxic, single point] | – |
